This is an account of results in PMC12136788.

T1: UNK ZnF1-6 (called full-length) (human, UniProt Q9C0B0 30-357)
T1 sequence: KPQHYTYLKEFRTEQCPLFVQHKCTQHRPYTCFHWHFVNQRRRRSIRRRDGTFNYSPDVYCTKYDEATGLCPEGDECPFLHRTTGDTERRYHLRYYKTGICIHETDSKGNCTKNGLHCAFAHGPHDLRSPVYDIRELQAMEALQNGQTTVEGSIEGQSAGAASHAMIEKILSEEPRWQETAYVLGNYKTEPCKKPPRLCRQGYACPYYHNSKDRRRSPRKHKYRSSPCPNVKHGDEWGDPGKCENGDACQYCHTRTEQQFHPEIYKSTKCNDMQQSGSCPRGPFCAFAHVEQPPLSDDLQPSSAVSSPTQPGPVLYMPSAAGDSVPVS

B1: chrX:133301433:133301604:-|3pUTR|ENSG00000076716|msi1|total|mutant (ssRNA)
RNA: GGGAGUUCUACAGUCCGACGAUCUUGUUUUUCUUGGGGGAUGGGGUGGGGUGGGAGCCGGCCGAGCUGAGAAUACUACAUCUCCGUGGUGACCUUCCGCCACGUGGGUGAAGUGGCAAAGGCCAUGGCCAUAUCUGUUGUCCCCAACAGAGGAUUGAGCAUCA
B2: ENSG00000070961:be:win_4301|3pUTR|ENSG00000070961|bound_else_gene|NA|bound_elsewhere_windowed (ssRNA)
RNA: GGGAGUUCUACAGUCCGACGAUCGCUAAUACUAAUAGCCAAAUAGAUAACACUAAUGCUUUGUUUAAAAAAACGAAAAAAACAAAACAAAACAAAAAAACAUGAGCAGUGGUGUUCUAAUGAAGUUAUGACAUCUGUCCUAAUCAACAGAGGAUUGAGCAUCA
B3: chr5:113014749:113014850:+|3pUTR|ENSG00000172795|msi1|total|mutant (ssRNA)
RNA: GGGAGUUCUACAGUCCGACGAUCUAAAAAUCCUUUUUUACAGUGGUAUCCACAAAAUACUUCUCUGCUUAUAAAUGUUAUUGCCGAAAUCUUUAUUCUGUGCCGGCCGCCUAUUUAAUUGGGUUCCACUGAACCUCAUGGGACCAACAGAGGAUUGAGCAUCA
B4: chr5:151662667:151662729:-|3pUTR|ENSG00000113140|msi1_unk|FALSE|overlapping (ssRNA)
RNA: GGGAGUUCUACAGUCCGACGAUCGCCAGGCUGUUUCAGCCAGGAAGGCCAAAAUCAAGAGUGAGAUGUAGAAAGUUGUAAAAUAGAAAAAGUGGAGUUGGUGAAUCGGUUGUUCUUUCCUCACAUUUGGAUGAUUGUCAUAAGCAACAGAGGAUUGAGCAUCA
B5: chr5:10264816:10264917:+|3pUTR|ENSG00000150753|msi1_unk|FALSE|overlapping (ssRNA)
RNA: GGGAGUUCUACAGUCCGACGAUCAAUGGAUGUCUCGUGAUGCAUCUACAGUUAUUUAUUGUUACAUCCUUUUCCAGACACUGUAGAUGCUAUAAUAAAAAUAGCUGUUUGGUAACCAUAGUUUCACUUGUUCAAAGCUGUGUACAACAGAGGAUUGAGCAUCA
B6: chr17:7656804:7656905:+|3pUTR|ENSG00000129244|unk|FALSE|unique (ssRNA)
RNA: GGGAGUUCUACAGUCCGACGAUCGCAUGUGCCACCAUGCCCGGCUAAUUUCUUUCUUUCUUUUUUUUUUUUUUUGCAUUUUUUAGUAGAGAUGGGGGUUUCUCCUUGUUGGUCAGGCUGGUCUCGAACUCCCGACCUCAGGUGCAACAGAGGAUUGAGCAUCA
B7: chr17:58089516:58089557:+|3pUTR|ENSG00000264364|msi1_unk|total|mutant (ssRNA)
RNA: GGGAGUUCUACAGUCCGACGAUCGAAGGCUGCUUUAUGUUUAUUUUUCAAGACUUUAAAAAUAUUUUUUGGUUGUAUUGCACCCGGAAAUCUCUCCCACCUCUCCCUUUUCUCUUUCUUUCCCUAUACAAAAUAAAAGGCCCACAACAGAGGAUUGAGCAUCA
B8: chr7:50445662:50445763:-|CDS|ENSG00000132436|msi1|FALSE|unique (ssRNA)
RNA: GGGAGUUCUACAGUCCGACGAUCGUUAUCUCAACGGGGAGAUGGUGAGCAUGAAUCUUCUAGAAGGAUAAAAACAGAAUUUUUAGUUCAAUUAGAUGGAGCAACAACAUCUUCUGAAGAUCGUAUCCUAGUGGUGGGAGCAACCAACAGAGGAUUGAGCAUCA
B9: ENSG00000107863:be:win_4101|CDS|ENSG00000107863|bound_else_gene|NA|bound_elsewhere_windowed (ssRNA)
RNA: GGGAGUUCUACAGUCCGACGAUCUUUACUCACCAACAUUGGAAGGACAGGAGUCUCCCCAGGAGAUGUAUCAGAUUCAGCUACUAGUGACUCAACAAAAUCUAAGGGUUCUUGGGGAUCUGGAAAGGAUCAGUAUAGCAGGGACAACAGAGGAUUGAGCAUCA
B10: chr10:84150713:84150851:+|CDS|ENSG00000165678|unk|total|mutant (ssRNA)
RNA: GGGAGUUCUACAGUCCGACGAUCUCUUCCACCUACCACCGUGGCUGGUGCCACUCUUUACUCAGUGGCAAUGUACGGUGGAUCCGUUCUUUUCAGCAUGUUCCUUCUGUAUGAUACCCAGAAAGUAAUCAAGCGUGCAGAAGUCAACAGAGGAUUGAGCAUCA
B11: chr11:75587191:75587292:-|CDS|ENSG00000171533|unk|total|mutant (ssRNA)
RNA: GGGAGUUCUACAGUCCGACGAUCACAGCCUCCAAAGAAUCAAGGUCGUACCGUCCCUGAACCUCUGAAGAAUCAAGUUCCUACCGUCCCAGUGCCUCUGAAGGAUCAAGAUCCUCUGGUGCCAGUACCAGCAAAGGACCAAGGCAACAGAGGAUUGAGCAUCA
B12: chr8:103229222:103229323:+|3pUTR|ENSG00000164929|unk|total|mutant (ssRNA)
RNA: GGGAGUUCUACAGUCCGACGAUCUAAUUUUCCCGUAUGUCUUGAAACAUGUUCAUCUGGAAGUAUUUUCCUCCAAAGUAAUGCCGCAUGAUUUUUCAAGGAUUGUUAACAUGCCUGGGAUUGGGAAAGACCGGACUAAAGUUGCAACAGAGGAUUGAGCAUCA
B13: chr9:125236489:125236593:-|3pUTR|ENSG00000044574|msi1_unk|FALSE|overlapping (ssRNA)
RNA: GGGAGUUCUACAGUCCGACGAUCUGUAGACACUGAUCUGCUAGUGCUGUAAUAUUGUAAAUACUGGACUCAGGAACUUUUGUUAGGAAAAAAUUGAAAGAACUUAAGUCUCGAAUGUAAUUGGAAUCUUCACCUCAGAGUGGACAACAGAGGAUUGAGCAUCA
B14: chr8:22006364:22006465:+|3pUTR|ENSG00000130227|msi1|FALSE|unique (ssRNA)
RNA: GGGAGUUCUACAGUCCGACGAUCUGUUGCUGCUAGUUGUACACAUCUCUAGUUCAGCUCUUGCCCACGGGACACUCAUCAAUUAGGUUUUAUUUUUAUUUCUUUCCUCUACCCCCAGAAACAAGCCUGUUAAUUUUUUUUCCUCAACAGAGGAUUGAGCAUCA
B15: ENSG00000198589:be:win_2651|CDS|ENSG00000198589|bound_else_gene|NA|bound_elsewhere_windowed (ssRNA)
RNA: GGGAGUUCUACAGUCCGACGAUCAAAAGAUAACAGAAAUGGUAUACGCCAUAUUCAGAAUCCUGCUUUACCAUGCAGUCAAAUAUGAGUGGGGUGGCUGGCGUGUAUGGGUAGACACUUUAUCAAUCACUCAUUCAAAGGUCACAACAGAGGAUUGAGCAUCA
B16: chr1:45660322:45660423:-|5pUTR|ENSG00000159592|unk|FALSE|unique (ssRNA)
RNA: GGGAGUUCUACAGUCCGACGAUCUCCCCUUCCCCCCUUCCCCUUUUCCCCUUUCCCCUUUUGGAAACGUGUCAGGAACCAAAUAGUUUAAGAUGAGCAGUUGAGGGGACUGAGAGAGUGAUCGACACAGAACCUGGCUUCUUCCAACAGAGGAUUGAGCAUCA
B17: chr13:106491723:106491923:-|3pUTR|ENSG00000125266|msi1|total|mutant (ssRNA)
RNA: GGGAGUUCUACAGUCCGACGAUCCAGACUCAGCUGCUAUACUUAUCACAUUUUAUUAAACACAGGGAAAGCAUUCCGGAGAACCGCAGAGAGCCAAAUCUGACCUAAAAGUUGAAAAGCCAAAGGUCAAACAGGCUGUAAUUCCAACAGAGGAUUGAGCAUCA
B18: chr10:51697484:51697585:-|3pUTR|ENSG00000177613|unk|total|mutant (ssRNA)
RNA: GGGAGUUCUACAGUCCGACGAUCAAUGGGUGCAAAAAGCUGACUUCUGUAUCCCCACACUUGGAUCCGGGUUUCCCUCCUCCCCGAACCUAAUCUUAUUUUUUGUUCUUUUUCUUUCUUUCUGUUUUCCUUUUUUUUUUAAUUCAACAGAGGAUUGAGCAUCA
B19: chr19:42935403:42935769:-|CDS|ENSG00000221878|control|control|control (ssRNA)
RNA: GGGAGUUCUACAGUCCGACGAUCCUACAUCUGGUACAAAGGACAAAUCAGGGACCUCUACCAUUAUGUUACAUCAUAUAUAGUAGACGGUCAAAUAAUUAAAUAUGGGCCUGCAUACAGUGGACGAGAAACAGUAUAUUCCAACAACAGAGGAUUGAGCAUCA
B20: chr21:34788506:34788607:-|3pUTR|ENSG00000159216|msi1|FALSE|unique (ssRNA)
RNA: GGGAGUUCUACAGUCCGACGAUCUUGUUAAUGCCUAUAACUUUUUUUCAAUUUUUUUGUGUGUGUUUCUAAGGACUUUUUCUUAGGUUUGCUAAAUACUGUAGGGAAAAAAAUGCUUCUUUCUACUUUGUUUAUUUUAGACUUCAACAGAGGAUUGAGCAUCA
B21: chr2:101892430:101892531:+|3pUTR|ENSG00000071054|msi1|FALSE|unique (ssRNA)
RNA: GGGAGUUCUACAGUCCGACGAUCCCAUUAGAGGUUGAUGGGGCAACUGCAGCCCAUGACACAAGAUCUCAUUGUUCUCGAUGUAGAGGGGUUGGUAGCAGACAGGUGGUUACAUUAGAAUAGUCACACAAACUGUUCAGUGUUCAACAGAGGAUUGAGCAUCA
B22: chr1:204551843:204551944:+|3pUTR|ENSG00000198625|unk|total|mutant (ssRNA)
RNA: GGGAGUUCUACAGUCCGACGAUCAGUGUUCCUGGAAUCUCUAUGCAAGUUUUAUACAGAACAUACUUUUGGAAUCCUUGCCCCCGACAGGGGUGUCCAAUCUUUUGGCUUCCCUGGUCCACAAUGGAAGAAGAAUUGUCUUGGCAACAGAGGAUUGAGCAUCA

The list shows a part of the results.

This experiment has as its target T1, UNK ZnF1-6 (called full-length). Put plainly: nsRBNS (natural sequence RNA bind-n-seq); RBNS binding buffer (assumed for nsRBNS): 25 mM Tris pH 7.5, 150 mM KCl, 3 mM MgCl2, 0.01% Triton X-100, 500 ug/ml BSA, 20 U/ml SUPERase-In, 4 C; UNK is unkempt and MSI1 is Musashi-1; names of the RNAs are library labels; protein concentration not given here; high values mean tight binding.
As to B1, the binding signal worked out at 1.2 enrichment R. The same measure for B2: 0.858 enrichment R. The molecule B3 had a binding signal of 0.567 enrichment R. The result for B4 reads 2.11 enrichment R; that for B5, 1 enrichment R. The same measure for B6: 8.51 enrichment R; for B7: 4.03 enrichment R; for B8: 0.853 enrichment R. Take B9: the binding signal turned out to be 0.854 enrichment R. The same measure for B10: 0.53 enrichment R.

Regarding B11, the binding signal turned out to be 0.477 enrichment R. The result for B12 reads 0.36 enrichment R; that for B13, 5.52 enrichment R. The same measure for B14: 41.4 enrichment R; for B15: 0.84 enrichment R; for B16: 0.765 enrichment R. The same measure for B17: 1.05 enrichment R; for B18: 6.4 enrichment R. Turning to B19, the binding signal came out at 0.629 enrichment R. In turn, B20 yielded a binding signal of 2.15 enrichment R. Molecule B21 showed a binding signal of 0.771 enrichment R. The molecule B22 came in with a binding signal of 0.328 enrichment R.
